Test results reported in PMC6212790.
Some of the results follow. At the low end of the ranking the order means little.

target: T1, GST-Rok (full length) (UniProt O34857); experiment: protein binding microarray; conditions: Rok is a gene silencer of Bacillus subtilis; high values mean tight binding; most listed sequences are background and not binding sites; double strand, one strand shown;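 also: rank score from −0.5 (least bound) to 0.5 (best bound)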
T1 sequence: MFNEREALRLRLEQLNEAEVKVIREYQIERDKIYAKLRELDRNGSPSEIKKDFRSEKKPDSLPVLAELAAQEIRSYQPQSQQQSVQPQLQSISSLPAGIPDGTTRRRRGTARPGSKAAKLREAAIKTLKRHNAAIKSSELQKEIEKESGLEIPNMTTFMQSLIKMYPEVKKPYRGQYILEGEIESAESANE

Row | Sequence | binding signal
1 | ATATCTTC | 0.262 E-score
2 | TCGCGAGA | 0.123 E-score
3 | ATACTCAA | 0.198 E-score
4 | CAACTTTC | 0.15 E-score
5 | AAAAGGTT | -0.148 E-score
6 | AAACAGCG | -0.192 E-score
7 | AACTATGA | 0.285 E-score
8 | TGTTCGAA | 0.101 E-score
9 | AGAGGACC | -0.246 E-score
10 | ACGAGATC | -0.067 E-score
11 | AAACCCTA | -0.0129 E-score
12 | CATTCACC | -0.0704 E-score
13 | GAAACGGC | -0.103 E-score
14 | ACAACTCG | 0.0439 E-score
15 | AGTGGAAA | 0.0158 E-score
16 | AAGAGCTA | 0.104 E-score
17 | TCTCTCCA | -0.234 E-score
18 | AGTAATCC | -0.000301 E-score
19 | CCTGAATA | 0.175 E-score
20 | CCTCAGGA | -0.32 E-score
21 | CATACAAG | 0.0872 E-score
22 | CGCGTCAC | -0.12 E-score
23 | GATACGAA | 0.138 E-score
24 | TCCAACCA | -0.11 E-score
25 | ACGTGGAG | -0.074 E-score

Row | Sequence | binding signal
26 | GCAGACCA | -0.276 E-score
27 | TCGTCACA | 0.118 E-score
28 | CGTATTAA | 0.157 E-score
29 | ACAAGGAG | -0.286 E-score
30 | ATCGCAGA | -0.0847 E-score
31 | ATGTCCAA | 0.0904 E-score
32 | AAAGAACG | 0.0177 E-score
33 | GATCCTAA | -0.0892 E-score
34 | CTTCTGCC | -0.311 E-score
35 | ATAACATG | 0.152 E-score
36 | GTACCTGA | 0.102 E-score
37 | ATGTCGGC | 0.0255 E-score
38 | GATCACTA | 0.0769 E-score
39 | AAGGAGCA | -0.295 E-score
40 | AACTACGA | 0.292 E-score
41 | ACATTTTG | 0.18 E-score
42 | AGGCAGTG | -0.302 E-score
43 | CAGAATTA | 0.0718 E-score
44 | CAGCAGTC | 0.0125 E-score
45 | TGTGTAAA | 0.0793 E-score
46 | GCAGGGAC | -0.315 E-score
47 | AAACGCGG | -0.0383 E-score
48 | CCTAAGCG | -0.17 E-score
49 | GATAGTCA | 0.0302 E-score
50 | CGAGAGGC | -0.317 E-score

Row | Sequence | binding signal
51 | CTCCAAAG | -0.248 E-score
52 | AAGTGGGG | -0.288 E-score
53 | GTAGTTCA | 0.217 E-score
54 | GAGACCGC | -0.268 E-score
55 | ACTGCCTG | -0.0375 E-score
56 | CAGTCCTA | 0.123 E-score
57 | CTTCGTTC | -0.277 E-score
58 | GCGCGAGC | -0.127 E-score
59 | AAACAGGG | -0.0541 E-score
60 | CAACGGCC | -0.217 E-score
61 | AATCGATG | 0.06 E-score
62 | GACGTACA | 0.202 E-score
63 | CGGGCTCA | -0.321 E-score
64 | CGAATAGA | 0.127 E-score
65 | CATGACAA | 0.0877 E-score
66 | AGTCAGAG | -0.175 E-score
67 | ATGAACCG | -0.0944 E-score
68 | ATATACGC | 0.213 E-score
69 | GATAAATC | 0.186 E-score
70 | GCATATCA | 0.0288 E-score
71 | ACACTGGA | -0.0856 E-score
72 | AACCGGAA | -0.207 E-score
73 | TCCAAAGA | -0.105 E-score
74 | CAGATGAA | 0.026 E-score
75 | GGTATGAC | -0.0448 E-score

Row | Sequence | binding signal
76 | GCCGTAGA | 0.0518 E-score
77 | AGGTGGGA | -0.0993 E-score
78 | CAGCGCTG | -0.169 E-score
79 | GCACACAA | -0.102 E-score
80 | CCGTCCCC | -0.468 E-score
81 | CTATGAGC | -0.0858 E-score
82 | GGCGGGCA | -0.334 E-score
83 | CAGAAGCG | -0.142 E-score
84 | AGGGCCAC | -0.329 E-score
85 | CAGGACGG | -0.164 E-score
86 | CGCACTTA | 0.0626 E-score
87 | GTATCTTA | 0.179 E-score
88 | TCCTATAA | 0.232 E-score
89 | AAGCAAGC | -0.178 E-score
90 | AAGCCGGG | -0.213 E-score
91 | CCTAAACC | -0.152 E-score
92 | ATGTCTAG | 0.112 E-score
93 | CTGGGCCC | -0.306 E-score
94 | CCAGTTAG | 0.049 E-score
95 | CTACAACC | 0.119 E-score
96 | CTAGAAGA | 0.0371 E-score
97 | GTGCTAAA | 0.117 E-score
98 | CTATCGTA | 0.335 E-score
99 | ACTACAAA | 0.251 E-score
100 | GTTAGACA | 0.149 E-score

Row | Sequence | binding signal
101 | CCGGTCAC | -0.153 E-score
102 | ATGAGAGA | -0.0267 E-score
103 | AAAAGCTG | 0.115 E-score
104 | ACCTTGCG | -0.00332 E-score
105 | ACAGTACC | 0.159 E-score
106 | ACGAAACG | 0.0357 E-score
107 | AGGCATCA | -0.00485 E-score
108 | CCAACACC | -0.165 E-score
109 | AGACAACA | -0.167 E-score
110 | GTACTATA | 0.444 E-score
111 | ACACTCGT | 0.192 E-score
112 | ATCCGGAA | 0.0859 E-score
113 | GTCACAAA | 0.0126 E-score
114 | GAACGATC | 0.128 E-score
115 | CCCGAACG | -0.135 E-score
116 | ATGACCAA | 0.000102 E-score
117 | CTATCAGA | 0.252 E-score
118 | ACGCACCC | -0.221 E-score
119 | CCACACAC | -0.0245 E-score
120 | CTAACAAA | 0.128 E-score
121 | AGCGTCGA | -0.0241 E-score
122 | GAGGCTAA | -0.0664 E-score
123 | AAGATAGG | 0.0773 E-score
124 | TATCGGCA | -0.145 E-score
125 | AGAATGCC | -0.0218 E-score

Row | Sequence | binding signal
126 | CGATCCTA | 0.144 E-score
127 | CCTTAGTA | 0.0464 E-score
128 | GTTCATTA | -0.0238 E-score
129 | GAGTAGCA | 0.067 E-score
130 | ATTACATG | 0.233 E-score
131 | AAGGCGCT | -0.0571 E-score
132 | AGTTGAGA | -0.000301 E-score
133 | GCAAGCCA | -0.176 E-score
134 | CCGAGATA | 0.056 E-score
135 | TGTGACAA | -0.0757 E-score
136 | CTTTCCTC | -0.172 E-score
137 | CCACAGTC | -0.277 E-score
138 | GAACTTTA | 0.269 E-score
139 | CTACGTAA | 0.0899 E-score
140 | CGGACTGC | -0.131 E-score
141 | CCCCCGTA | -0.202 E-score
142 | ATAGTATC | 0.321 E-score
143 | TCGACCGA | -0.203 E-score
144 | CTATCATC | 0.2 E-score
145 | AGGTAGGG | -0.0356 E-score
146 | CCTGTCCA | -0.0803 E-score
147 | CTTACGAC | 0.101 E-score
148 | AAGATTTG | 0.0702 E-score
149 | CCGCTCCG | -0.212 E-score
150 | CCATTGCC | -0.26 E-score

Row | Sequence | binding signal
151 | CTATTAGC | 0.204 E-score
152 | GCATAGAC | -0.0346 E-score
153 | ATAATTAA | 0.29 E-score
154 | CCGAGGAG | -0.22 E-score
155 | GAGAATCC | -0.0985 E-score
156 | AGAAAACA | 0.0334 E-score
157 | CATCTTGG | -0.102 E-score
158 | AGACGGCA | -0.129 E-score
159 | ACCGAGAA | -0.0195 E-score
160 | ACTACATA | 0.326 E-score
161 | CTATGGTC | -0.0229 E-score
162 | GTTTCGTA | 0.236 E-score
163 | GACATCGC | -0.124 E-score
164 | CCATCGCA | -0.0675 E-score
165 | GTTATTAA | 0.296 E-score
166 | AGAGATCG | 0.0154 E-score
167 | GACCTCAC | -0.136 E-score
168 | CGAGTTCC | -0.139 E-score
169 | ACTATGTA | 0.316 E-score
170 | AATCGTCG | 0.0964 E-score
171 | GCGTCGAA | -0.075 E-score
172 | AACTACTG | 0.436 E-score
